Measured values: publication PMC4336329 (PLoS ONE, 2015)
Screen size: about 310,000 compounds; about 14,000 (4.5%) showed an effect of 50% or more. Effects have a minus sign here. The list shows a part of the results.

biological target: human ether-à-go-go-related gene (hERG) potassium channel (human, UniProt Q12809); experiment: primary screen, population patch clamp on CHO cells stably expressing hERG
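Note: peak tail current of the secondary pulse compared with the same well before compound.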

Sequence of human ether-à-go-go-related gene (hERG) potassium channel (Q12809 whole entry, looked up): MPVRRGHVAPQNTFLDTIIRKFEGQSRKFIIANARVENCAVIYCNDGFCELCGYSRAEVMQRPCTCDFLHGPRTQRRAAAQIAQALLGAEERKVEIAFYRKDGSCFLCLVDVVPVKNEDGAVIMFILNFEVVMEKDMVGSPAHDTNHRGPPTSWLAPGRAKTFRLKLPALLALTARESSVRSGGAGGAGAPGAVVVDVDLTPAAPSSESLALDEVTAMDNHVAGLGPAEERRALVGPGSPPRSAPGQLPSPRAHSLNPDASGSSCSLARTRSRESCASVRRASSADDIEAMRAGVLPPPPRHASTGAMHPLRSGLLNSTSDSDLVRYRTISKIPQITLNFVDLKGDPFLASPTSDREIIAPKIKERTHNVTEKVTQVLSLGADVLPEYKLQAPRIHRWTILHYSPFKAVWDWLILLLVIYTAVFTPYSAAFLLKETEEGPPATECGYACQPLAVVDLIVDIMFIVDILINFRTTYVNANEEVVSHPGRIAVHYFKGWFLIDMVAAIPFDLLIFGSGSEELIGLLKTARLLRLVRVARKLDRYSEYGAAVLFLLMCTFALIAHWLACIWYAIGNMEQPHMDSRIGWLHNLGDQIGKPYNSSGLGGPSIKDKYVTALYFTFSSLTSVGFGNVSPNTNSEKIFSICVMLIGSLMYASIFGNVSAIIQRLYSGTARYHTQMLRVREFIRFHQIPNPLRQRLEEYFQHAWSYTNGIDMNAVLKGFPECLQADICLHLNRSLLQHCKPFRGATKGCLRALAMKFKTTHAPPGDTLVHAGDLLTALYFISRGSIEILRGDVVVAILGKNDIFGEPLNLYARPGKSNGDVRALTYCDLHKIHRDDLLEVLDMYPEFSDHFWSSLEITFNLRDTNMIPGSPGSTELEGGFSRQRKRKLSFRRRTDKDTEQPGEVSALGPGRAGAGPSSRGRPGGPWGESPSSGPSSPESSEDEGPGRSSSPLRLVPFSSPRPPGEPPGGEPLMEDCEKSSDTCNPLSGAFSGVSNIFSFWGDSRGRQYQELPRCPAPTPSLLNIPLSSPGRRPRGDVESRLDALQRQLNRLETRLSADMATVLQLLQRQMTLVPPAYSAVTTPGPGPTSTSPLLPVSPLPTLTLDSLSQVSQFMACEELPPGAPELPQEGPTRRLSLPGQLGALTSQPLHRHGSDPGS

Structure (SMILES)	hERG current change (%, negative = inhibition) at 10uM
COc1ccc(C(=O)Nc2nc(-c3ccc([N+](=O)[O-])cc3)c(-c3ccccc3)s2)cc1	4.35%
CC1Cc2cc(S(=O)(=O)NCc3ccccc3)ccc2N1C(=O)C1CCC1 (centres unmarked)	20.7%
COc1cccc(C(=O)N(Cc2ccc(N(C)C)cc2)C2CCS(=O)(=O)C2)c1 (centres unmarked)	-18.1%
CCCCSC1=C(C#N)C(c2ccccc2C)CC(=O)N1 (centres unmarked)	5.6%
O=C(c1cc(COc2cccc(C(F)(F)F)c2)on1)N1CCC(c2ccncc2)CC1	-78.8%
Cc1cc(=O)[nH]c(N/N=C/C=C/c2ccccc2)n1	-46.9%
O=C(NC(=S)Nc1ccc(S(=O)(=O)Nc2nccs2)cc1)c1cccnc1	23.1%
CC(=O)c1sc(NC(=O)CCS(=O)(=O)c2ccc(Cl)cc2)nc1C	-5.04%
O=C(CSc1nncn1-c1ccccc1)Nc1ccccc1	-0.536%
O=C(O)COc1ccc(/C=C/C(=O)c2ccc3ccccc3c2)cc1	14.3%
Cc1ccc(-c2nc(CS(=O)(=O)CC(=O)Nc3cc(F)ccc3F)c(C)o2)cc1	-2.41%
Cc1nnc2ccc(-c3ccc(NC(=O)c4cccnc4Cl)cc3)nn12	-0.347%
Cc1cc(C)c(C)c(S(=O)(=O)N2CCN(CC(=O)NC(=O)NCc3ccccc3)CC2)c1C	11.2%
O=C(COC(=O)c1ccc(Cl)cc1)NC1CCCCCC1	8.02%
CC(C)(C)c1cc2cccnc2n1Cc1cccc(Cl)c1	-37.8%
O=C(O)c1cccc(Nc2ccc([N+](=O)[O-])c3nonc23)c1	8.47%
Cc1ccc(NC(=S)N(Cc2cccs2)Cc2cc3cccc(C)c3[nH]c2=O)cc1	-9.88%
CCOC(=O)/C(C#N)=C/c1ccc(OC(=O)c2ccco2)c(OCC)c1	0.972%
O=C(Nc1ccc2nn(-c3ccccc3)nc2c1)c1ccc(Br)o1	7.88%
COc1ccccc1-n1c(SCC(=O)N2CCOCC2)nc2cccnc21	1.31%
O=C(O)[C@@H]1CC(O)CN1C(=O)CCc1c[nH]c2ccccc12 (some centres unmarked)	7.3%
O=C(c1cc2cc(Cl)ccc2[nH]1)N1CCCCC1	-4.79%

Structure (SMILES)	hERG current change (%, negative = inhibition) at 10uM
CCCOc1ccc(N2C(=O)CC(N3CCN(CCN=CC4C(=O)CC(C)(C)CC4=O)CC3)C2=O)cc1 (centres unmarked)	-7.04%
COCCn1c(SCC(=O)Nc2ccc(C)cc2)nc2c(oc3ccccc32)c1=O	9.31%
COc1ccccc1-n1cnc2c(c1=O)c1nc3ccccc3nc1n2-c1ccc(C)cc1	-19.7%
CCOC(=O)[C@@H]1[C@H]2COc3cc(OC)ccc3[C@@H]2N2C(=O)N(c3ccc(C(F)(F)F)cc3)C(=O)[C@@]12C	0.831%
CN(C)/C=C/C(=O)c1ccc(-n2cccc2)cc1	-17.1%
O=C(CSc1nc2ccccc2[nH]1)NC(=O)NCc1ccco1	-9.5%
COc1ccc(N(C)C(=O)c2cc3c(s2)-c2ccccc2OC3)c(OC)c1	-1.98%
Cc1ccc(C2=CC(c3ccc(C)cc3)n3ncnc3N2)cc1 (centres unmarked)	-17.6%
NC1=NC2(CCN(Cc3ccccc3)CC2)n2c(nc3ccccc32)N1	-15.8%
COc1cccc(C2NC(=O)NC(C)=C2C(=O)Nc2ccc(C)cc2)c1 (centres unmarked)	12.6%
CN(C)CCCN(C(=O)c1ccc(S(=O)(=O)N(C)Cc2ccccc2)cc1)c1nc2cc3c(cc2s1)OCO3.Cl	-51.7%
O=c1c2ccccc2sn1-c1ccc(F)cc1	16.1%
S=C(Nc1ccccc1Cl)NC1CCCCCC1	-8.92%
O=C(Nc1nccs1)C12CC3CC(C1)CC(C(=O)Nc1nccs1)(C3)C2	-11.1%
CN(C[C@H](Cc1ccccc1)N(C[C@H](Cc1cccc2ccccc12)N(CCc1ccccc1)N=O)N=O)N=O.[Na+]	11.2%
Cc1ccc[n+](CC(=O)Nc2ccc(C)c(C)c2)c1.[Cl-]	10.4%
COc1ccccc1NC(=O)c1ccccc1-c1ccccc1C(=O)O	19.3%
COCCn1cc(C(=S)N2CCCCC2)c2ccccc21	8.68%
Cc1nc2sc(-c3ccccc3)nn2c(=O)c1Br	-1.74%
CC(=O)NC1C(=O)N=C(SC(C)C(=O)Nc2cccc(Cl)c2)NC1=O (centres unmarked)	16.4%
CC(C)N(C)C(=O)CCc1nnc(CCc2c[nH]c3ccccc23)o1	6.75%
O=C(COC(=O)c1ccc(F)cc1F)Nc1ncccn1	-3.24%

Structure (SMILES)	hERG current change (%, negative = inhibition) at 10uM
COc1ccc2c(Cl)c(C(=O)NCc3ccco3)sc2c1	-3.47%
CCOC(=O)c1oc2ccc(OC)cc2c1NC(=O)CN1CCN(C)CC1.Cl	-5.54%
O=C(O)c1cc2c(cc1NC(=O)c1c(F)cccc1Cl)OCCCO2	5.08%
O=C(CN1CCN(Cc2ccccc2)CC1)Nc1ccc([N+](=O)[O-])cc1C(=O)Nc1ccccc1F	-77.5%
COc1cc(CN2CCN(c3cc(C)ccc3C)CC2)ccc1O	-33.2%
FC(F)(F)c1ccc(C2[C@H]3CN(Cc4ccc(-c5ccccc5)cc4)[C@H](c4ccccc4)C34CC2(c2cccnc2)C4)cc1 (some centres unmarked)	14.9%
COc1ccc(-n2c(-c3ccc(C)cc3)n[nH]c2=S)cc1	15%
CC(C)=N/N=C(\c1cccc([N+](=O)[O-])c1)C12CN3CN(CN(C3)C1)C2	7.66%
Cn1c(-c2ccc(-c3ccccc3)cc2)c[nH]c1=S	6.28%
COC(=O)CSc1cc(C)nc(NC(C)=O)n1	3.82%
CC(=O)Nc1ccc(NC(C)=O)c(NC2OCC(O)C(O)C2O)c1 (centres unmarked)	11.7%
CCC(C)NC(=O)c1cc(-c2ccc(OC)cc2)on1 (centres unmarked)	-10.1%
Cc1ccc(S(=O)(=O)N2CC(O)C[C@H]2C(=O)OCC(=O)c2ccccc2)cc1 (some centres unmarked)	-8.42%
O=C1C(Cl)=C(NS(=O)(=O)c2ccc([N+](=O)[O-])cc2)C(=O)c2ccccc21	10.6%
Cc1cc2c(cc1S(=O)(=O)NCC(C)c1ccccc1)n(C)c(=O)c(=O)n2C (centres unmarked)	-22.1%
COC(=O)c1ccc(-c2ccc(C(c3c(C)[nH][nH]c3=O)c3c(C)[nH][nH]c3=O)o2)cc1	32.9%
O=C(CC1OC(=O)c2ccccc21)Nc1ccc(Cl)c(S(=O)(=O)N2CCCCC2)c1 (centres unmarked)	-23.1%
CNC(=S)N/N=C/C1=CCC2CC1C2(C)C (centres unmarked)	-3.84%
Cc1cc[n+](-c2[nH]c(=O)sc2/C=N/NC(=O)c2ccccc2[O-])cc1C	-4.76%
Cc1ccc(-n2nc(-c3cccs3)cc2C(=O)NCC2CCCO2)c(C)c1 (centres unmarked)	-40.3%
COCC(C)NC(=O)NC(=O)c1ccc(Cl)cc1 (centres unmarked)	-0.149%
C=CCO/N=C(/C)c1ccc(Oc2cnccn2)cc1	-4.06%

Structure (SMILES)	hERG current change (%, negative = inhibition) at 10uM
O=C(Nc1ccc2oc(-c3ccccc3F)nc2c1)c1ccco1	-16.1%
O=[N+]([O-])c1cnc[nH]1	14.5%
CS(=O)(=O)Oc1ccc(/C=N/NC(=O)c2ccncc2)cc1	-2.46%
N#Cc1cnc(Sc2ccccc2)nc1	4.21%
Nc1c(C(=O)N/N=C/c2ccc(OCc3ccccc3)cc2)cnn1-c1ccccc1	26%
CCN(CC)CCn1c2c(c(SCC(=O)Nc3nc4ccccc4s3)nc1=O)CCC2	-58.3%
Cc1c(C(=O)Nc2nccs2)oc2ccc(F)cc12	4.22%
O=C(CCCOc1cccc(Br)c1)NC1CCC(O)CC1 (centres unmarked)	4.76%
Cc1cccn2c(=O)c3cc(C(=O)NCCc4ccccc4)sc3nc12	-6.84%
COC(=O)c1cc(Br)c(=O)n(CCc2ccccc2)c1	-9.76%
CCN(CC)CC(=O)Nc1cccc2c1C(=O)c1ccccc1C2=O	11.5%
COc1ccc(S(=O)(=O)N2CCOC23CCN(S(=O)(=O)c2ccccc2)CC3)cc1	8.72%
Cc1cc(C(=O)c2cnc(/N=C/N(C)C)s2)cc(C)c1O	5.94%
CC(=O)c1ccc(N2CCN(C(=O)c3ccc4c(c3)OCO4)CC2)cc1	-45.4%
CNC(C)C#Cc1ccc2c(=O)c3cc(C)c(C)cc3oc2c1 (centres unmarked)	-6.27%
Cc1ccc(NS(=O)(=O)c2ccc3c(c2)CC(=O)N3)c(C)c1	-14.2%
O=C(CCS(=O)(=O)c1cccc2nonc12)N1CC(=O)N(CCc2ccccc2)C(=O)C1	-15.6%
COc1cccc(C(=O)C[n+]2ccccc2/C=N/O)c1.[Br-]	16.8%
N#CCSc1nc2ccc(N3CCCCC3)cc2c(=O)n1Cc1ccccc1	10.8%
O=C(CSc1ncccc1-c1nc2ccccc2[nH]1)Nc1ccc2c(c1)OCCO2	-30.8%
